The list shows a part of the results.
Experiments:
Experiment in all cases: glycan array binding signal (z-score within array); higher = stronger binding
Details in all cases: glycan notation: IUPAC condensed, linker removed
[1] = target: Neu5Ac(a2-6)Gal(b1-4)GlcNAc(b1-6)[Gal(b1-3)GlcNAc(b1-3)]Gal(b1-4)Glc
Procedure, shortened: (§1)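 Glycan array data were curated from 3228 arrays in the Consortium for Functional Glycomics database and kept only where the protein sequence was available. Glycan names were converted to IUPAC-condensed notation, and columns mapping to the same glycan were averaged. The binding signal is a within-array Z-score, averaged across arrays of the same protein sequence at different concentrations or buffers and across linkers. Negative Z-scores can be read as non-binding.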

[2] = target: Neu5Ac(a2-6)Gal(b1-4)GlcNAc(b1-6)[Gal(b1-3)]GalNAc
Procedure, shortened: as §1

[3] = target: Neu5Ac(a2-6)Gal(b1-4)GlcNAc6S
Procedure, shortened: as §1

[4] = target: Neu5Ac(a2-6)GalNAc
Procedure, shortened: as §1

[5] = target: Neu5Ac(a2-6)GalNAc(b1-4)GlcNAc
Procedure, shortened: as §1

[6] = target: Neu5Ac(a2-6)GalNAc(b1-4)GlcNAc6S
Procedure, shortened: as §1

[7] = target: Neu5Ac(a2-6)GlcNAc(b1-4)GlcNAc
Procedure, shortened: as §1

[8] = target: Neu5Ac(a2-6)GlcNAc(b1-4)GlcNAc(b1-4)GlcNAc
Procedure, shortened: as §1

[9] = target: Neu5Ac(a2-8)Neu5Ac
Procedure, shortened: as §1

[10] = target: Neu5Ac(a2-8)Neu5Ac(a2-3)Gal(b1-3)GalNAc(b1-4)[Neu5Ac(a2-3)]Gal(b1-4)Glc
Procedure, shortened: as §1

[11] = target: Neu5Ac(a2-8)Neu5Ac(a2-3)Gal(b1-3)GalNAc(b1-4)[Neu5Ac(a2-8)Neu5Ac(a2-3)]Gal(b1-4)Glc
Procedure, shortened: as §1

[12] = target: Neu5Ac(a2-8)Neu5Ac(a2-3)Gal(b1-4)Glc
Procedure, shortened: as §1

[13] = target: Neu5Ac(a2-8)Neu5Ac(a2-3)Gal(b1-4)GlcNAc
Procedure, shortened: as §1

[14] = target: Neu5Ac(a2-8)Neu5Ac(a2-3)[Gal(b1-3)GalNAc(b1-4)]Gal(b1-4)Glc
Procedure, shortened: as §1

[15] = target: Neu5Ac(a2-8)Neu5Ac(a2-3)[GalNAc(b1-4)]Gal(b1-4)Glc
Procedure, shortened: as §1

[16] = target: Neu5Ac(a2-8)Neu5Ac(a2-8)Neu5Ac
Procedure, shortened: as §1

[17] = target: Neu5Ac(a2-8)Neu5Ac(a2-8)Neu5Ac(a2-3)Gal(b1-4)Glc
Procedure, shortened: as §1

[18] = target: Neu5Ac(a2-8)Neu5Ac(a2-8)Neu5Ac(a2-3)[Gal(b1-3)GalNAc(b1-4)]Gal(b1-4)Glc
Procedure, shortened: as §1

[19] = target: Neu5Ac(a2-8)Neu5Ac(a2-8)Neu5Ac(a2-3)[GalNAc(b1-4)]Gal(b1-4)Glc
Procedure, shortened: as §1

[20] = target: Neu5Ac(a2-8)Neu5Ac(a2-8)Neu5Ac(a2-8)Neu5Ac(a2-3)[GalNAc(b1-4)]Gal(b1-4)Glc
Procedure, shortened: as §1

[21] = target: Neu5Ac(a2-8)Neu5Gc(a2-3)Gal(b1-4)GlcNAc
Procedure, shortened: as §1

[22] = target: Neu5Ac(b2-6)Gal(b1-4)GlcNAc
Procedure, shortened: as §1

[23] = target: Neu5Ac(b2-6)GalNAc
Procedure, shortened: as §1

[24] = target: Neu5Ac9Ac(a2-3)Gal(b1-3)GlcNAc
Procedure, shortened: as §1

[25] = target: Neu5Ac9Ac(a2-3)Gal(b1-4)GlcNAc
Procedure, shortened: as §1

[26] = target: Neu5Ac9Ac(a2-6)Gal(b1-4)GlcNAc
Procedure, shortened: as §1

[27] = target: Neu5Gc(a2-3)Gal(b1-3)GlcNAc
Procedure, shortened: as §1

[28] = target: Neu5Gc(a2-3)Gal(b1-3)[Fuc(a1-4)]GlcNAc
Procedure, shortened: as §1

[29] = target: Neu5Gc(a2-3)Gal(b1-4)Glc
Procedure, shortened: as §1

[30] = target: Neu5Gc(a2-3)Gal(b1-4)GlcNAc
Procedure, shortened: as §1

[31] = target: Neu5Gc(a2-3)Gal(b1-4)GlcNAc(b1-3)Gal(b1-4)GlcNAc(b1-2)Man(a1-3)[Neu5Gc(a2-3)Gal(b1-4)GlcNAc(b1-3)Gal(b1-4)GlcNAc(b1-2)Man(a1-6)]Man(b1-4)GlcNAc(b1-4)GlcNAc
Procedure, shortened: as §1

[32] = target: Neu5Gc(a2-3)Gal(b1-4)[Fuc(a1-3)]GlcNAc
Procedure, shortened: as §1

[33] = target: Neu5Gc(a2-6)Gal(b1-4)GlcNAc
Procedure, shortened: as §1

[34] = target: Neu5Gc(a2-6)GalNAc
Procedure, shortened: as §1

[35] = target: Neu5Gc(a2-8)Neu5Ac(a2-3)Gal(b1-4)GlcNAc
Procedure, shortened: as §1

[36] = target: Neu5Gc(a2-8)Neu5Gc(a2-3)Gal(b1-4)GlcNAc
Procedure, shortened: as §1

[37] = target: Neu5Gc(a2-8)Neu5Gc(a2-3)Gal(b1-4)GlcNAc(b1-3)Gal(b1-4)GlcNAc
Procedure, shortened: as §1

[38] = target: Neu5Gc(a2-8)Neu5Gc(a2-6)Gal(b1-4)GlcNAc
Procedure, shortened: as §1

[39] = target: Neu5Gc(b2-6)Gal(b1-4)GlcNAc
Procedure, shortened: as §1

B1: MSMEG3662-2a (Mycobacterium smegmatis), A0QYH7_MYCS2 (protein)
chain: MGDTLTAGQKLERGGSLQSGNGAYTLTLQDDGNLVLYARDKAVWSTGTNGQDVVRAEVQTDGNFVLYTAEKPVWHTDTKGKKEVKLVLQDDRNLVLYAKDGPAWSSKTDTTEPPPPAPEPEKEAEVAPAAAEEAAPAPVAEPAPAEPAPAAPPPAPPAPRTYTVVSGDTLWAIAERFYGDGSKYQQIADASGIANPDLIHPGQVLTIP
For B1, the “glycan array binding signal (z-score)” value [1] was 0.089, the “glycan array binding signal (z-score)” value [2] was 0.051 and the “glycan array binding signal (z-score)” value [3] was -0.15. For the same binder, the “glycan array binding signal (z-score)” value [4] was -0.07, the “glycan array binding signal (z-score)” value [5] was 0.165 and the “glycan array binding signal (z-score)” value [6] was -0.183. For the same binder, the “glycan array binding signal (z-score)” value [7] was -0.058, the “glycan array binding signal (z-score)” value [8] was 1.58 and the “glycan array binding signal (z-score)” value [9] was -0.128. For the same binder, the “glycan array binding signal (z-score)” value [10] was -0.195, the “glycan array binding signal (z-score)” value [11] was 0.097 and the “glycan array binding signal (z-score)” value [12] was -0.086. The “glycan array binding signal (z-score)” value [13] was -0.085, the “glycan array binding signal (z-score)” value [14] was -0.055 and the “glycan array binding signal (z-score)” value [15] was -0.084. The “glycan array binding signal (z-score)” value [16] was -0.147, the “glycan array binding signal (z-score)” value [17] was -0.07 and the “glycan array binding signal (z-score)” value [18] was -0.176. The “glycan array binding signal (z-score)” value [19] was -0.078, the “glycan array binding signal (z-score)” value [20] was -0.17 and the “glycan array binding signal (z-score)” value [21] was 0.105. The “glycan array binding signal (z-score)” value [22] was -0.019, the “glycan array binding signal (z-score)” value [23] was -0.023 and the “glycan array binding signal (z-score)” value [24] was -0.178. For the same binder, the “glycan array binding signal (z-score)” value [25] was -0.051, the “glycan array binding signal (z-score)” value [26] was -0.225 and the “glycan array binding signal (z-score)” value [27] was -0.187. For the same binder, the “glycan array binding signal (z-score)” value [28] was -0.18, the “glycan array binding signal (z-score)” value [29] was -0.093 and the “glycan array binding signal (z-score)” value [30] was -0.059. For the same binder, the “glycan array binding signal (z-score)” value [31] was 0.118, the “glycan array binding signal (z-score)” value [32] was 0.023 and the “glycan array binding signal (z-score)” value [33] was -0.02. For the same binder, the “glycan array binding signal (z-score)” value [34] was -0.074, the “glycan array binding signal (z-score)” value [35] was -0.087 and the “glycan array binding signal (z-score)” value [36] was -0.11. The “glycan array binding signal (z-score)” value [37] was -0.195, the “glycan array binding signal (z-score)” value [38] was -0.118 and the “glycan array binding signal (z-score)” value [39] was -0.051.

Reference: the supplement of paper PMC8728848
